In PubChem BioAssay AID463173 (ICCB-Longwood Screening Facility, Harvard Medical School, 2010) one finds survival data, which are given here for 90 molecules.

The whole screen tested about 52,000 compounds, of which about 4,300 (8.3%) were called active. Cut-off read from the data, not from the text of the source: active = survival mostly below about 52% (no sharp cut-off); inactive = mostly above about 56%. The list shows a part of the results.

The experiment has as its system DeltatarO mutant. Put plainly: S. aureus survival, RN4220 and DeltatarO strains – OD600, teichoic acid synthesis inhibitors, primary screen (AID 463173). Particulars: S. aureus RN4220 wild type/DeltatarO growth, OD600, 18 h, hits give low values, screened at 18.75 µg/mL (by protocol).
In the case of `COc1ccc(CNC(=O)CSc2nc3ccsc3c(=O)n2Cc2ccccc2Cl)cc1`, the survival was inactive: 42%.

As for `CCc1ccc(N2C(=O)CC(c3cc(OC)ccc3OC)C3=C2COC3=O)cc1` (stereo not given), the survival was inactive: 68%.

With `O=C(Nc1ccc2oc(-c3cccnc3)nc2c1)c1ccc(-c2ccc(Cl)cc2)o1`, the survival is inactive: 73%. Regarding `Cc1cc2oc(C(=O)Nc3sc4c(c3C(=O)NCC3CCCO3)CCC4)cc(=O)c2cc1C` (stereo not given), the survival was active: 36%. To `O=C(CSc1nnc(-c2ccc(NS(=O)(=O)c3ccccc3)cc2)o1)NCC1CCCO1` (stereo not given) belongs inactive: 73%; to `Cc1cccc(NC(=S)N(CCN(C)C)Cc2cc3cc4c(cc3[nH]c2=O)OCO4)c1`, inactive: 80%; to `Cc1ccc(NC(=O)Cn2ncn3c(cc4ccccc43)c2=O)c(C)c1`, active: 45%. To `CCOc1ccc(C2CC(=O)n3nc(-c4ccc(C)cc4)nc3S2)cc1` (stereo not given) belongs inactive: 70%; to `O=c1[nH]c(C2CCCNC2)nc2c1nnn2Cc1ccccc1` (stereo not given), inactive: 98%; to `CCn1c(=O)c2cc(C(=O)NC3CCCCCC3)sc2c2ccccc21`, inactive: 56%. As to `CCOC(=O)c1sc(NC(=O)c2nc3ncccn3n2)c(C(=O)OC)c1C`, the survival is inactive: 51%. As for `O=S(=O)(NCc1ccccc1)c1ccc(-c2cnc(C3CC3)o2)cc1`, the survival was inactive: 71%.

In the case of `CC(NC(=O)c1ccc2c(c1)N(Cc1ccc(Cl)cc1)C(=O)c1ccccc1S2(=O)=O)c1ccccc1` (stereo not given), the survival is inactive: 90%. `CCOc1cc2sc(N3CCC(C(=O)Nc4ccc(C)cc4)CC3)nc2cc1Br`: the survival is inactive: 83%. To `CCCCCn1c(=N)c(S(=O)(=O)c2ccccc2)cc2c(=O)n3ccccc3nc21` belongs inactive: 85%; to `CCOc1ccc(CCNC(=O)Cn2nc(CC)n3c(cc4sc(CC)cc43)c2=O)cc1OCC`, inactive: 76%; to `Cc1oc2ncn(CC(C)C)c(=O)c2c1C(=O)N1CCN(c2ccc(F)cc2)CC1`, inactive: 90%. Take `COc1ccccc1CNc1ccc(-c2nc(C)no2)cc1[N+](=O)[O-]`: the survival is inactive: 68%. For `O=C(c1ccc(C(F)(F)F)cc1)N1CCC(c2nc(-c3ccc(S(=O)(=O)N4CCCC4)cc3)no2)CC1`, the survival is inactive: 88%. `COc1nc(-c2ccc(C)cc2)ccc1-c1noc(-c2ccccc2Br)n1`: the survival was active: 19%. Take `COc1cc(OC)c(NC(=O)CCCn2nc(C)c3sc4ccccc4c3c2=O)cc1Cl`: the survival is inactive: 61%. In the case of `COC(=O)c1ccc(Cl)cc1NC(=O)N1CCCn2nc(C)cc21`, the survival was inactive: 94%. For the molecule `COc1ccc(C(c2nnnn2C2CCCCC2)N2CCC(C)CC2)cc1OC` (stereo not given), the survival was inactive: 97%. As for `O=c1c2cccnc2n(Cc2ccccc2F)c(=O)n1Cc1ccccc1Cl`, the survival was inactive: 62%. In the case of `Cc1ccc(C)c(N2CCN(C(=O)CN3CCSc4ccc(S(=O)(=O)N(C)C)cc43)CC2)c1`, the survival is inactive: 102%. Consider `COc1ccc(-c2nc3sc(-c4ccc(OC)cc4)nc3s2)cc1`, for which the survival is inactive: 95%. As for `Cc1ccc(C(c2nnnn2Cc2ccccc2)N2CCC(C)CC2)cc1` (stereo not given), the survival was inactive: 70%. To `CCOC(=O)c1c(C)[nH]c(C)c1S(=O)(=O)N1CCC(C(=O)N2CCN(c3ccc(Cl)cc3)CC2)CC1` belongs inactive: 98%; to `COc1ccc(-n2c(=O)c3c4c(sc3n(Cc3ccccc3)c2=O)CN(C(C)=O)CC4)cc1OC`, inactive: 67%. Turning to `COc1ccccc1NC(=O)c1ccc2c(Cl)c3c(nc2c1)CCCC3`, the survival is active: 15%. For the molecule `CC1=C(c2ccc(C)c(C)c2)S(=O)(=O)N=C1N1CCC(C(=O)NCCc2ccc(Cl)cc2)CC1`, the survival is inactive: 101%.

Regarding `CCOc1ccc(NC(=O)N2CC=C(c3c[nH]c4ccccc34)CC2)cc1`, the survival was inactive: 83%.

Consider `Cc1ccc(C)c(NC(=O)Cn2cc(C(=O)C3CCCCC3)c3ccccc32)c1`, for which the survival was inactive: 75%. `Cc1ccc2[nH]c3c(=O)n(CC(=O)N(C)c4cc(Cl)ccc4C)ncc3c2c1`: the survival was inactive: 89%.

Turning to `O=C(c1ccc2c(c1)N(Cc1cccc(Cl)c1)C(=O)c1ccccc1S2(=O)=O)N1CCCCC1`, the survival was inactive: 92%. On to `COc1cccc2c1Oc1ncccc1N(C(=O)CCC(=O)NCc1ccc(N(C)C)cc1)C2`, for which the survival is inactive: 70%. Consider `COc1cccc(NC(=O)c2oc3ccccc3c2NC(=O)c2ccc(C(F)(F)F)cc2)c1`, for which the survival was inactive: 60%. As for `O=C(CN1CCCN(Cc2ccc(Cl)cc2)S1(=O)=O)Nc1ccccc1F`, the survival is inactive: 66%.

As to `Cc1nc(N2CCCC2)c2c(C(=O)Nc3cccc(Cl)c3C)c(C)oc2n1`, the survival was inactive: 63%. On to `COc1ccc(NC(=O)CSc2nc3nc(C)c(Cc4ccc(C)cc4)c(C)n3n2)cc1OC`, for which the survival was inactive: 67%. The value for `COc1ccc(Cl)cc1-n1nnc(-c2nc(-c3ccc4c(c3)OCO4)no2)c1C` was inactive: 99%. Consider `CCCNC(=O)C1CCC(Cn2c(=O)c3sccc3n(Cc3ccccc3C)c2=O)CC1` (stereo not given), for which the survival is inactive: 78%. On to `Cc1nc(SCC(=O)N2c3ccccc3CCc3ccccc32)n[nH]1`, for which the survival is inactive: 102%.

Take `COc1cc2[nH]c(=O)n(Cc3ccc(C(=O)NCc4ccccc4)cc3)c(=O)c2cc1OC`: the survival was inactive: 78%. Consider `COc1cc(Cl)c(C)cc1NC(=O)c1cc2ccc3cccnc3c2[nH]1`, for which the survival is inactive: 71%. As for `O=C(c1cc(=O)c2cc(Cl)ccc2o1)N(Cc1ccccc1)C1CCS(=O)(=O)C1` (stereo not given), the survival was inactive: 51%.

For `CC(=O)OCc1cnc(C)c2oc(=O)c(C(=O)Nc3cccc(F)c3)cc12`, the survival is inactive: 109%. Consider `CCCCN1CC(c2nc3ccccc3n2CCCCOc2ccc(C)cc2C)CC1=O` (stereo not given), for which the survival is active: 13%. The value for `Cc1ccc(-n2ncc3c(NCCCN4CCOCC4)ncnc32)cc1Cl` was inactive: 75%; that for `O=C(NCCCc1nc2ccccc2n1Cc1cccc(Cl)c1)c1ccco1` was active: 46%; that for `Cn1ccc(-c2ccccc2)n1` was inactive: 80%.

On to `Cc1cccc(C)c1NC(=O)c1csc2c1CCCC2`, for which the survival is inactive: 90%. The value for `COc1ccccc1NC(=O)C(=O)c1cc(C)n(-c2ccccc2F)c1C` was inactive: 93%; that for `CCc1ccc(NC(=O)c2cc(S(=O)(=O)N3CCCCCC3)ccc2F)cc1` was inactive: 99%. On to `COc1ccc2c(c1)CC(NC(=O)Nc1cc(Cl)ccc1OC)CO2` (stereo not given), for which the survival was inactive: 92%.

Turning to `COc1cccc(C(=O)Nc2ccc(Cl)c(-c3nc4ccccc4[nH]3)c2)c1`, the survival was inactive: 68%. With `CSc1nc(C)cc(Nc2c(C)cc(C)cc2C)n1`, the survival was inactive: 59%.

As for `CCc1ccc(OCCCSc2nc(-c3ccc(C(C)(C)C)cc3)nc3cc(=O)[nH]n23)cc1`, the survival is inactive: 80%. As to `O=C(O)CSc1nnc(-c2ccccc2)o1`, the survival is inactive: 69%. To `COC(=O)c1ccc(NS(=O)(=O)c2ccc(-n3cccn3)cc2)cc1` belongs inactive: 87%; to `CC(=O)c1ccc(N2CCN(S(=O)(=O)c3ccc4c(c3)CC(C)N4C(=O)C3CCC3)CC2)cc1` (stereo not given), inactive: 80%. For `COc1cccc(CNC(=O)C2CCN(c3nc4ccc(Cl)cc4[nH]3)CC2)c1`, the survival was inactive: 101%. The value for `CCCCc1cc(=O)oc2cc(C)c3c(C)coc3c12` was inactive: 78%; that for `COC(=O)C1C(c2ccccc2)C(C(=O)OCc2ccco2)C1c1ccccc1` (stereo not given) was inactive: 97%. The value for `O=C(NCCn1cc(SCc2ccc(F)cc2)c2ccccc21)c1c(F)cccc1F` was active: 53%. On to `CCOC(=O)c1cccc(NC(=O)c2ccc3c(c2)nnn3C2CCCC2)c1`, for which the survival is inactive: 73%.

Consider `Cc1ccc(Cn2c(C(=O)Nc3cccc(Cl)c3)cc3sccc32)cc1`, for which the survival was inactive: 80%. Turning to `Cn1nnnc1SCCNCc1ccccc1OCc1ccccc1F`, the survival was inactive: 140%.

Consider `Cn1cnc(S(=O)(=O)N2CCCC(C(=O)Nc3ccc(F)cc3Cl)C2)c1` (stereo not given), for which the survival was inactive: 70%.

For the molecule `CCOc1ccc(NC(=O)c2cc3c(-c4ccccc4F)nn(C)c3s2)cc1`, the survival was inactive: 109%. Regarding `O=C(CCSCc1cnn(-c2ccccc2)c1-n1cccc1)NCc1ccccc1F`, the survival is inactive: 61%. For `S=c1[nH]c2ccccc2n1CCOc1ccccc1`, the survival is inactive: 110%. Regarding `Cn1c(SCc2ccc(F)cc2)nc2c([nH]c3ccccc32)c1=O`, the survival is inactive: 88%.

Turning to `COc1ccccc1C(=O)Nc1c(C(=O)N(CCN(C)C)Cc2ccco2)oc2ccccc12`, the survival is inactive: 55%. For the molecule `C=Cc1ccc(Cn2c(C(=O)O)c(CNCc3cccs3)c3ccc(C)cc32)cc1`, the survival was inactive: 94%. As to `Cc1ccc(S(=O)(=O)c2cn(C)c3cc(N4CCCCCC4)c(F)cc3c2=O)cc1`, the survival was inactive: 85%. As to `CCOC(=O)c1ccc(NC(=O)c2c(NCc3cccs3)sc3c2CCCCC3)cc1`, the survival is inactive: 104%. For the molecule `O=S(=O)(NCc1nc2cccnc2n1Cc1ccc(F)cc1)c1ccc2c(c1)CCCC2`, the survival is inactive: 89%.

As for `O=S(=O)(NCCc1csc2nc(-c3ccc(F)cc3)nn12)c1ccc(Br)cc1`, the survival is inactive: 94%. For the molecule `Cc1cc(NC(=O)Cn2c(=O)nc(-c3ccccc3F)c3cc(Cl)ccc32)ccc1Br`, the survival is inactive: 160%. Turning to `Nc1nc2sc3c(c2cc1C(=O)N1CCOCC1)CCCC3`, the survival is inactive: 72%. Regarding `Cc1ccc(-c2nc(C#N)c(NCCN3CCCCC3)o2)cc1`, the survival is inactive: 85%.

On to `CCOC(=O)c1c(C)oc2nc(C)nc(N3CCN(c4ccc(C(C)=O)cc4)CC3)c12`, for which the survival was inactive: 86%.

For `COc1cccc(C(=O)N(Cc2sccc2C)C2CCS(=O)(=O)C2)c1` (stereo not given), the survival was inactive: 92%. For `CC(C)(C)OC(=O)N1CCC(c2c(C(=O)NCc3ccc(F)cc3)cnn2-c2ccc(F)cc2)CC1`, the survival is active: -5%. The value for `COc1ccc(OCC2c3cc(OC)c(OC)cc3CCN2C(=O)c2ccc(F)cc2)cc1` (stereo not given) was inactive: 94%; that for `CCN(CC)CCNC(=O)c1sc2nc3n(c(=O)c2c1C)CCCCC3` was inactive: 53%. As for `COc1ccc(C(=O)Nc2cc(-c3cccc(C)c3)nn2-c2ccccc2)cc1`, the survival was inactive: 102%.

Regarding `Cc1ccc(-c2cn3c(n2)sc2cc(C(=O)NCCCN4CCCCC4)ccc23)cc1`, the survival is active: -3%. As to `COc1ccc2cc3cc(C(=O)N4CCN(c5ccc(C(C)=O)cc5)CC4)sc3nc2c1Cl`, the survival was inactive: 64%.
